These are yes or no findings as the source states them, for the method shown. Binding seen in cells or lysates may run through a third protein. Some entries that bind do so weakly or less than the wild type. Where a sequence is shown, tags or fusion partners need not be part of it. Values belong to the binder of their own block, whether it stands above or below them.
Assays:
Flag-hDrn1 (human) = target: T1, Flag-hDrn1 (human) (UniProt Q69YN2); assay: co-IP; Flag-tagged protein precipitated with anti-Flag M2 agarose from whole-cell extract of transfected HEK293T cells (buffer E: 20 mM Tris-HCl pH 8.0, 100 mM KCl, 0.2 mM EDTA, 0.2 mM PMSF; 60 min, 4 °C; five washes); Western blotting of the precipitates
T1 sequence: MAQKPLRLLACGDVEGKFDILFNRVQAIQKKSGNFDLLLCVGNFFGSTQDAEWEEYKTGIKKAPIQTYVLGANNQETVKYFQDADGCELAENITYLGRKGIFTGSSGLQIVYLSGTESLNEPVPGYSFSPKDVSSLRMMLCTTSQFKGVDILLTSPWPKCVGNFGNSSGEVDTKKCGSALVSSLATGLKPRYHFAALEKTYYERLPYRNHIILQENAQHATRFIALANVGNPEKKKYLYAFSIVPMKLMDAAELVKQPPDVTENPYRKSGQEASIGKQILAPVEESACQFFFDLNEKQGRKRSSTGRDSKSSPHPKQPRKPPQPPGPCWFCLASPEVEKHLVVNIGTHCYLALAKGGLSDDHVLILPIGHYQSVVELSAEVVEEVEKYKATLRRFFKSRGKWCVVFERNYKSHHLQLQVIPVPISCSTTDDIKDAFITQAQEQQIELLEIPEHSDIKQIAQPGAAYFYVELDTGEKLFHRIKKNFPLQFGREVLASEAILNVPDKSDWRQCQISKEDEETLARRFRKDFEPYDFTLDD

[1] = target: T2, Flag-Xab2 (xeroderma pigmentosum, complementeation group A (XPA)-binding protein 2), expressed in HEK293T (UniProt Q9HCS7); assay: as above
T2 sequence: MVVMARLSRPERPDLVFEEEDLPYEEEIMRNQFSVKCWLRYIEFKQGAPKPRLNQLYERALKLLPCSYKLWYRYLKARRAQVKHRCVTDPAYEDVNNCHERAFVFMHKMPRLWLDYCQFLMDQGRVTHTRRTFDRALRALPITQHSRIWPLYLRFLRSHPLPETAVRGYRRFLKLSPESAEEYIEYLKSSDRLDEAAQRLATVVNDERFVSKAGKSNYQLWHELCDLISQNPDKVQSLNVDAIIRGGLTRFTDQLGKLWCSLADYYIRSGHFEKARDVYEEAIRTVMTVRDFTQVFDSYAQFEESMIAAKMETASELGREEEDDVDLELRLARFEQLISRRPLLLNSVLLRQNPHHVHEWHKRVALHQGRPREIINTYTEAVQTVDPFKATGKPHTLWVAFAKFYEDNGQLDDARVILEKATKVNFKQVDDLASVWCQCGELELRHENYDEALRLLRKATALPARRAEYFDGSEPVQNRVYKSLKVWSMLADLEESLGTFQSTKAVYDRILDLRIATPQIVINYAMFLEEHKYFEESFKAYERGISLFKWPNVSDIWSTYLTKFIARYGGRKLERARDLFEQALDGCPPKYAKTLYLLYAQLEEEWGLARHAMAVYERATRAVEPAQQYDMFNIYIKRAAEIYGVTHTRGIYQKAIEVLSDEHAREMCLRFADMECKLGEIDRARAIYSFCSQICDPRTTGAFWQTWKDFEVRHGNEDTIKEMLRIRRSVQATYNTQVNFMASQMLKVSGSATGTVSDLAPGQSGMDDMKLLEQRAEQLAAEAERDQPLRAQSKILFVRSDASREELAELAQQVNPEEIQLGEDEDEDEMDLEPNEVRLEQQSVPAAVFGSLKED

[2] = target: T3, Flag-hPrp19, expressed in HEK293T (human), Q9UMS4; assay: as above; settings: remark: other sources report otherwise
T3 chain: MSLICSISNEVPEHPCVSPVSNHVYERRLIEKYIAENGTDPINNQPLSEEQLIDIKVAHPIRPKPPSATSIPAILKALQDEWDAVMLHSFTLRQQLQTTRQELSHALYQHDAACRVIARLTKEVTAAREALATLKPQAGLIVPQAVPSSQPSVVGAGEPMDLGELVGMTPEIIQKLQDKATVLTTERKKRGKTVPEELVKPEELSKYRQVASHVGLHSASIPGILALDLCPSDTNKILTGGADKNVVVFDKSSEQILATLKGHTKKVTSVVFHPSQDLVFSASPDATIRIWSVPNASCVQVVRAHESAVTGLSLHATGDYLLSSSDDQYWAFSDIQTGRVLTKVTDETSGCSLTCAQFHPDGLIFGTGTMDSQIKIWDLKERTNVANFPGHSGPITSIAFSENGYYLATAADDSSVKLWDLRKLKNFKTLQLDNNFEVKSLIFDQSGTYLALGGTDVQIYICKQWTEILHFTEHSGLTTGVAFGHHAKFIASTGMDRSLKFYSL

[3] = target: T4, Flag-IBP160, expressed in HEK293T, O60306; assay: as above; settings: remark: other sources report otherwise
T4 chain: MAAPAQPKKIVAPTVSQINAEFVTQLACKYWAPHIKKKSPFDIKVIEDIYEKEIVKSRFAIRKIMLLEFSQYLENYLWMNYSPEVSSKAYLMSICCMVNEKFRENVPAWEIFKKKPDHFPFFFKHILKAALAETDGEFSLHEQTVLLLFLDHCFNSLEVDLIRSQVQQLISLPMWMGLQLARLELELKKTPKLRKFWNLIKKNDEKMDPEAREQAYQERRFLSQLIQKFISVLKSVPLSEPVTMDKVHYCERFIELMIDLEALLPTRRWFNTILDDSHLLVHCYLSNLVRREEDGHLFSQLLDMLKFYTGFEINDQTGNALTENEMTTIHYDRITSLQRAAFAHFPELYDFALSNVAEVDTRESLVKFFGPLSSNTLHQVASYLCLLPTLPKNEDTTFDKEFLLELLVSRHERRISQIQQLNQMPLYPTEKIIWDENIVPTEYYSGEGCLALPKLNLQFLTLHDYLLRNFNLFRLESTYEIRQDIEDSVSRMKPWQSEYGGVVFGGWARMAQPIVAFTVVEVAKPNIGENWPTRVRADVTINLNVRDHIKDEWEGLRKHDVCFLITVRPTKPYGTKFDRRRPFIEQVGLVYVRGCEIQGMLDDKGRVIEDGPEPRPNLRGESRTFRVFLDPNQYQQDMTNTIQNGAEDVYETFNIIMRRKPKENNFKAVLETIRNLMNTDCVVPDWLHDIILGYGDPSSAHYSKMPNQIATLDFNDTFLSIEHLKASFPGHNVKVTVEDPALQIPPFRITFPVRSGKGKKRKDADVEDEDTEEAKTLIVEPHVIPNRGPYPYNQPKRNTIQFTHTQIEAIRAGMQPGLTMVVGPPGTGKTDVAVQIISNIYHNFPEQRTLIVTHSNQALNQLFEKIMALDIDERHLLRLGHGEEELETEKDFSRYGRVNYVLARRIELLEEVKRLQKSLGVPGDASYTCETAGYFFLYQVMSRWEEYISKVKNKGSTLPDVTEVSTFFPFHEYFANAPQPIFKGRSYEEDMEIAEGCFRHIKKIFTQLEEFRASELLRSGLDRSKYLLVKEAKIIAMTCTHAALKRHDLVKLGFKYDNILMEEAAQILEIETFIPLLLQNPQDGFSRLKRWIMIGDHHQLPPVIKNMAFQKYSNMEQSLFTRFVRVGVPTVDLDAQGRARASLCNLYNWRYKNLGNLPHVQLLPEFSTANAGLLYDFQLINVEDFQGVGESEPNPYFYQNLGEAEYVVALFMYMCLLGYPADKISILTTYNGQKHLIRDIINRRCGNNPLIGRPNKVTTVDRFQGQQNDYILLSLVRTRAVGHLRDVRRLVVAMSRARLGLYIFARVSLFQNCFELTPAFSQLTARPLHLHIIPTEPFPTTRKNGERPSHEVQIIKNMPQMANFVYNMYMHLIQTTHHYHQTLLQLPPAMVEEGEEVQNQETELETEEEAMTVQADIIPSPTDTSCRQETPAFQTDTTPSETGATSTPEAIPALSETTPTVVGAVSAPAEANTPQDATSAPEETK

[4] = target: T5, GST-hDbr1 (human), Q9UK59; assay: pull-down; 5 μg GST or GST fusion protein immobilised on glutathione beads; [35S]methionine-labelled in vitro translated protein added in 50 mM Tris-HCl pH 7.4, 200 mM NaCl, 2 mM EDTA, 0.1% NP-40, 4 °C, 1 h; five washes; SDS-PAGE and fluorography; only the target purified; settings: remark: other sources report otherwise
T5 chain: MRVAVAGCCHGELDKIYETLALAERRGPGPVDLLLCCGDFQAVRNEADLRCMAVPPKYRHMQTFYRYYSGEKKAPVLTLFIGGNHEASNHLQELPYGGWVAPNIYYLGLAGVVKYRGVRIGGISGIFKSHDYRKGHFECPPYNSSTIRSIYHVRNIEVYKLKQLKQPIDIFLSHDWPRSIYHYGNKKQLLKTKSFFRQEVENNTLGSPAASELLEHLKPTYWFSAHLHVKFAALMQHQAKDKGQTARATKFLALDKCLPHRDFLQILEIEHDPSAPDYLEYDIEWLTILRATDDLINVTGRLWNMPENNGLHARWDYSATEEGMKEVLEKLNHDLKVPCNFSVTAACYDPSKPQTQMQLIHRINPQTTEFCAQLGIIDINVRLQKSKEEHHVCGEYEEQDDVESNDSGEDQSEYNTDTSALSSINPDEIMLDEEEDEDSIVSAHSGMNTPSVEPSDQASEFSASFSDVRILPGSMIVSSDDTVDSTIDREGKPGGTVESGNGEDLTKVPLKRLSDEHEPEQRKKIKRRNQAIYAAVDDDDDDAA

binding (Flag-hDrn1 (human)): binds
binding [1]: binds weakly
B1: human Debranching enzyme 1 (hDbr1), endogenous (protein, UniProt Q9UK59-1 1-544)
chain: MRVAVAGCCHGELDKIYETLALAERRGPGPVDLLLCCGDFQAVRNEADLRCMAVPPKYRHMQTFYRYYSGEKKAPVLTLFIGGNHEASNHLQELPYGGWVAPNIYYLGLAGVVKYRGVRIGGISGIFKSHDYRKGHFECPPYNSSTIRSIYHVRNIEVYKLKQLKQPIDIFLSHDWPRSIYHYGNKKQLLKTKSFFRQEVENNTLGSPAASELLEHLKPTYWFSAHLHVKFAALMQHQAKDKGQTARATKFLALDKCLPHRDFLQILEIEHDPSAPDYLEYDIEWLTILRATDDLINVTGRLWNMPENNGLHARWDYSATEEGMKEVLEKLNHDLKVPCNFSVTAACYDPSKPQTQMQLIHRINPQTTEFCAQLGIIDINVRLQKSKEEHHVCGEYEEQDDVESNDSGEDQSEYNTDTSALSSINPDEIMLDEEEDEDSIVSAHSGMNTPSVEPSDQASEFSASFSDVRILPGSMIVSSDDTVDSTIDREGKPGGTVESGNGEDLTKVPLKRLSDEHEPEQRKKIKRRNQAIYAAVDDDDDDAA

binding [2]: no binding
binding [3]: no binding
B2: human Debranching enzyme 1 (hDbr1), endogenous, Q9UK59-1 1-544 (protein)
chain: MRVAVAGCCHGELDKIYETLALAERRGPGPVDLLLCCGDFQAVRNEADLRCMAVPPKYRHMQTFYRYYSGEKKAPVLTLFIGGNHEASNHLQELPYGGWVAPNIYYLGLAGVVKYRGVRIGGISGIFKSHDYRKGHFECPPYNSSTIRSIYHVRNIEVYKLKQLKQPIDIFLSHDWPRSIYHYGNKKQLLKTKSFFRQEVENNTLGSPAASELLEHLKPTYWFSAHLHVKFAALMQHQAKDKGQTARATKFLALDKCLPHRDFLQILEIEHDPSAPDYLEYDIEWLTILRATDDLINVTGRLWNMPENNGLHARWDYSATEEGMKEVLEKLNHDLKVPCNFSVTAACYDPSKPQTQMQLIHRINPQTTEFCAQLGIIDINVRLQKSKEEHHVCGEYEEQDDVESNDSGEDQSEYNTDTSALSSINPDEIMLDEEEDEDSIVSAHSGMNTPSVEPSDQASEFSASFSDVRILPGSMIVSSDDTVDSTIDREGKPGGTVESGNGEDLTKVPLKRLSDEHEPEQRKKIKRRNQAIYAAVDDDDDDAA

binding [4]: no binding
B3: Flag-tagged hPrp19, in vitro translated, Q9UMS4 1-504 (protein)
chain: MSLICSISNEVPEHPCVSPVSNHVYERRLIEKYIAENGTDPINNQPLSEEQLIDIKVAHPIRPKPPSATSIPAILKALQDEWDAVMLHSFTLRQQLQTTRQELSHALYQHDAACRVIARLTKEVTAAREALATLKPQAGLIVPQAVPSSQPSVVGAGEPMDLGELVGMTPEIIQKLQDKATVLTTERKKRGKTVPEELVKPEELSKYRQVASHVGLHSASIPGILALDLCPSDTNKILTGGADKNVVVFDKSSEQILATLKGHTKKVTSVVFHPSQDLVFSASPDATIRIWSVPNASCVQVVRAHESAVTGLSLHATGDYLLSSSDDQYWAFSDIQTGRVLTKVTDETSGCSLTCAQFHPDGLIFGTGTMDSQIKIWDLKERTNVANFPGHSGPITSIAFSENGYYLATAADDSSVKLWDLRKLKNFKTLQLDNNFEVKSLIFDQSGTYLALGGTDVQIYICKQWTEILHFTEHSGLTTGVAFGHHAKFIASTGMDRSLKFYSL

From PMC4346921, “Identification of the Specific Interactors of the Human Lariat RNA Debranching Enzyme 1 Protein” (International Journal of Molecular Sciences, 2015)
